According to PubChem BioAssay AID493208 (National Center for Advancing Translational Sciences (NCATS), 2011):
Among all 44,000 compounds or so, about 340 (0.77%) were called active. About 5% were inconclusive and are not listed. The call rests on the fitted dose curve; in most records, active means well fitted inhibition curve with a large enough effect; inconclusive means small, poorly fitted or top-dose-only effect; inactive means flat fitted curve, though single readings scatter. This is one part of the list.

Experiment: Acumen qHTS Assay for Inhibitors of the mTORC1 Signaling Pathway in MEF (Tsc2-/-, p53-/-) Cells: Sytravon; further: nearly all actives have a fitted effect of over 50% in size;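 on activity change, negative = inhibition: plate controls were DMSO for no effect and rapamycin for full effect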
Conditions: phospho-rpS6 immunofluorescence/PI, 24 h; series mostly up to 38.3 µM; activity change, negative = inhibition: at the top concentration
Procedure, shortened: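 Tsc2-/-, p53-/- mouse embryonic fibroblasts (empty-vector line) exposed to compound 24 hrs at 37 C, fixed, immunostained for phospho-rpS6 and counterstained with propidium iodide. Acumen laser scanning gives % positive cells from Alexa 488/PI ratio, thresholded using 7.5 nM rapamycin; PI count gives viability.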
Potency means the concentration at half of the fitted maximal effect.

Structure (SMILES) | activity change, negative = inhibition | Potency
CCCCN(CC)CCCNC(=O)CN1C(=O)CSc2ccc(S(=O)(=O)N3CCOCC3)cc21 | inactive: 1.17% | –
CCOC(=O)c1cc(-c2ccc(OC)c(S(=O)(=O)NC3CCCCC3)c2)on1 | inactive: 3.71% | –
COc1ccc(CCNC(=O)CN2C(=O)COc3ccc(C)cc32)cc1OC | inactive: 1.93% | –
CCN(C(=O)Cn1nc(Cc2ccncc2)c2ccccc2c1=O)c1cccc(Cl)c1 | inactive: 3.3% | –
COc1ccccc1N(CC(=O)N1CCC(C)CC1)S(=O)(=O)c1ccc(C)cc1 | inactive: 1.9% | –
CCc1ccc(Cn2c(CNS(=O)(=O)c3ccc([N+](=O)[O-])cc3)nc3cccnc32)cc1 | inactive: 0.576% | –
COCCCNC(=O)c1c(-c2ccccc2)c(-c2ccccc2)nn(C)c1=O | inactive: -0.447% | –
O=C(Nc1ccc2nc3n(c(=O)c2c1)CCCCC3)C(=O)Nc1ccccc1F | inactive: -7.67% | –
COc1cc(NC(=O)c2nn(C)c3c2CS(=O)(=O)c2ccccc2-3)cc(OC)c1 | inactive: -6.63% | –
Cc1cccc(Nc2nn3c(=O)c4cc5c(cc4nc3s2)OCO5)c1 | inactive: 5.17% | –
CCn1nc(C)c(CCN(C)C(=O)Nc2ccc(C)c(Cl)c2)c1C | inactive: 7.61% | –
Cc1ccc(C(=O)NCc2ccc3c(c2)CCN3C(=O)c2ccc(C)cc2)cc1 | inactive: 4.33% | –
COCCNC(=O)c1ccc(-n2c(-c3ccccc3)cc3c2CCC(C)C3)cc1 (stereo not given) | inactive: 3.67% | –
Cc1cc(Nc2cccc(Cl)c2)nc2ccc(NC(=O)Cc3ccc(Cl)cc3)cc12 | inactive: -11.7% | –
COc1ccc(NC(=O)c2sc3nc4c(cc3c2N)CCCCCC4)c(OC)c1 | inactive: -12.8% | –
COc1cc(N2C(=O)CSC23C(=O)N(Cc2cccc(F)c2)c2ccccc23)cc(OC)c1OC (stereo not given) | inactive: -11.3% | –
CCN(CC)CCNC(=O)CN1C(=O)COc2ccc(S(=O)(=O)N3CCOCC3)cc21 | inactive: -1.12% | –
CCOC(=O)Cn1c(=O)n(CC2CCCO2)c2nc(-c3ccc(OCC)cc3)nc(C(N)=O)c21 (stereo not given) | inactive: -1.73% | –
COc1ccc(CCNC(=O)c2ccc3c(c2)CCN3S(=O)(=O)c2ccccc2)cc1OC | inactive: -4.36% | –
CCOc1ccccc1NC(=O)Cn1c(=O)n(Cc2ccccc2)c(=O)c2c1c1cc(C)ccc1n2C | inactive: 0.511% | –
Cc1ccc(-n2ncc(C(=O)NCc3ccccc3)c2C2CCN(C(=O)OC(C)(C)C)CC2)cc1 | inactive: 6.24% | –
Cc1cc(=O)n2c(C(=O)Nc3ccc(Br)cc3)c(C(=O)Nc3ccccc3)sc2n1 | inactive: 3.93% | –
COc1ccccc1OCc1nnc(-c2ccccc2)o1 | inactive: -4.15% | –
CCCCOC(=O)c1ccc(OC(=O)c2sc3ncn(Cc4ccccc4Cl)c(=O)c3c2C)cc1 | inactive: -3.95% | –

Structure (SMILES) | activity change, negative = inhibition | Potency
Cc1ccc(Cl)cc1Nc1sc(C(=O)c2ccc(F)cc2)c(N)c1S(C)(=O)=O | inactive: -0.98% | –
O=C(CSc1nc(=O)n(Cc2ccco2)c2c1CCC2)Nc1cccc(F)c1 | inactive: 0.941% | –
CCOc1ccc(CNCCCSc2nnnn2C)cc1OC | inactive: -0.618% | –
COc1cccc(CNC(=O)Cc2csc3nc(-c4ccccc4)cn23)c1 | inactive: -4.32% | –
CCOc1ccc(NC(=O)Cn2cc(C(=O)c3ccc(OC)cc3)c(=O)c3cc4c(cc32)OCO4)cc1 | inactive: 11% | –
COc1ccccc1N1CCN(C(c2ccc(Cl)cc2)c2nnc(-c3cccc(F)c3)o2)CC1 (stereo not given) | inactive: -21.5% | –
O=C(Nc1ccc(Cl)c(-c2nc3ccccc3o2)c1)c1ccc(-c2cccc([N+](=O)[O-])c2)o1 | inactive: -1.59% | –
CCCSc1oc(-c2ccco2)nc1S(=O)(=O)c1ccc(Cl)cc1 | inactive: -4.71% | –
COc1ccccc1CNC(=O)c1cnc(N(C)C)nc1 | inactive: 0.298% | –
COc1ccc(CC(=O)Nc2sc3c(c2C(=O)Nc2cccc(C)c2)CCCCC3)cc1 | – | active: 9.27 µM
COc1cccc(N2CCN(C(=O)c3cc4c(=O)n(Cc5cccnc5)ccc4nc3C)CC2)c1 | inactive: 3.01% | –
COc1ccc(NC(=O)Cn2c(SCc3ccc(F)cc3)nc3cccnc32)c(OC)c1 | inactive: -6.73% | –
CC1CCn2c(nc3cc(C(=O)NCCc4ccccc4)ccc32)C1 (stereo not given) | inactive: 2.17% | –
CCOc1ccc(C(=O)Nc2nc(-c3ccc(Br)cc3)ns2)cc1 | inactive: -11.4% | –
COC(=O)c1ccccc1NC(=O)CCC(=O)N1CC(C)Sc2ccccc21 (stereo not given) | inactive: -12.2% | –
Cc1ccc2c(=O)cc(C(=O)Nc3ccc(S(=O)(=O)N4CCCCC4)cc3)oc2c1 | inactive: -3.37% | –
COc1ccc(NC(=O)C2CCCN(c3cnccn3)C2)c(OC)c1 (stereo not given) | inactive: -3.38% | –
CCC(Cc1ccccc1)NC(=O)CCS(=O)(=O)c1cc2c(cc1Cl)NC(=O)CO2 (stereo not given) | inactive: 7.59% | –
CCOc1ccc(CNC(=O)Nc2ccc3c(c2)N(C)C(=O)c2ccccc2S3)cc1 | inactive: -27.8% | –
Cc1ccc(NC(=O)CSc2cn(CC(=O)N3CCOCC3)c3ccccc23)cc1Cl | inactive: -6% | –
CCC(C)n1c(=N)c(C(=O)NC2CCCC2)cc2c(=O)n3ccccc3nc21 (stereo not given) | inactive: -2.02% | –
COc1ccc2sc(N(Cc3cccnc3)C(=O)c3cccs3)nc2c1 | inactive: -9.7% | –
Cn1c(=O)c2nc3ccc(NC(=O)C(F)(F)F)cc3nc2n(C)c1=O | inactive: -5.7% | –
Cc1ccc2c(c1)C(c1ccccc1)N(C(=O)c1ccc(S(=O)(=O)N3CCCC3)cc1)CC(=O)N2 (stereo not given) | inactive: -0.308% | –

Structure (SMILES) | activity change, negative = inhibition | Potency
Cc1ccc(NC(=O)CN2C(=O)CSc3ccc(S(=O)(=O)N(C)C)cc32)c(C)c1 | inactive: 3.39% | –
O=S(=O)(c1ccccc1)c1nnn2c1nc(N1CCN(c3ccccc3)CC1)c1cc(Cl)ccc12 | inactive: 0.117% | –
COc1ccc2sc(N(Cc3cccnc3)C(=O)C3COc4ccccc4O3)nc2c1 (stereo not given) | inactive: -6.44% | –
Cc1ccc(-n2ncc3c(NC4CCCC4)ncnc32)cc1 | inactive: 4.94% | –
CCOC(=O)/C(C#N)=C/c1ccc(-c2ccccc2)o1 | inactive: 2.08% | –
O=C(Cn1cc2c(n1)CCCC2)Nc1cc(C(F)(F)F)ccc1Cl | inactive: -12.5% | –
CCCn1cc(S(=O)(=O)c2ccccc2)c(=O)c2cc(F)c(N3CCCCCC3)cc21 | inactive: -19.8% | –
Cc1nc(SCc2ccccc2Cl)c(C#N)c(C)c1C | inactive: -19.6% | –
Cc1cc(C)cc(NC(=O)c2sc3nc4n(c(=O)c3c2C)N=C(c2ccc(F)cc2)CS4)c1 | inactive: 4.66% | –
O=C(Nc1ccc2nc(SCCOc3ccccc3Cl)sc2c1)c1ccco1 | inactive: -4.5% | –
COc1cccc(-c2nn(C)c3sc(C(=O)NCCc4cccc(C)c4)cc23)c1 | inactive: -4.33% | –
COc1ccc(C)cc1NC(=O)c1c(C(=O)Nc2cccc(C)c2C)sc2nc(C)cc(=O)n12 | inactive: 3.79% | –
Cc1nnc(N2CCN(c3cccc(Cl)c3)CC2)c2c1nnn2Cc1ccc(F)cc1 | inactive: -0.589% | –
CCOC(=O)C1CCCN(C(=O)Cn2ncc3c(C)n(Cc4ccc(F)cc4)c(C)c3c2=O)C1 (stereo not given) | inactive: -2.93% | –
CCOc1ccc(OCC)c(NC(=O)c2cnn(-c3ccc(F)cc3)c2C2CCN(C(=O)OC(C)(C)C)CC2)c1 | inactive: 0.318% | –
CCCNC(=O)Cn1ncc2c3ccccc3n(CCC)c2c1=O | inactive: -2.26% | –
CCOc1ccc(-n2c(C)nc3cc(C(=O)NCc4ccc(C)cc4)ccc32)cc1 | inactive: 7.05% | –
CCOc1ccc2c(c1)c(=O)c(C(=O)c1ccc3c(c1)OCO3)cn2Cc1cccc(F)c1 | inactive: -1.06% | –
COc1ccc(-n2ccnc(NCc3cccs3)c2=O)cc1 | inactive: -2.76% | –
COc1ccc(-c2ccc(-c3noc(-c4cc(OC)cc(OC)c4)n3)c(OC)n2)cc1 | inactive: -11.3% | –
CCn1c(=O)cc(SCC(=O)Nc2cc(Cl)ccc2OC)c2ccccc21 | inactive: -11.7% | –
CCOc1ccc(-c2nnc(SCC(=O)Oc3ccccc3)o2)cc1 | inactive: -2.18% | –
Cc1ccc(C(=O)Nc2nnc(S(=O)(=O)N(C)Cc3ccc(F)cc3)s2)cc1 | inactive: -5.29% | –
O=c1c2c3c(sc2nnn1Cc1ccc(F)cc1)CCCC3 | inactive: -0.763% | –

Structure (SMILES) | activity change, negative = inhibition | Potency
CC1CCCN(c2nc(-c3ccccc3O)nc3ccccc23)C1 (stereo not given) | inactive: -5.62% | –
CCc1ccccc1NC(=O)Cn1nnc(C(=O)Nc2ccc(OC)c(OC)c2)c1N | inactive: -12.1% | –
Cc1cccc(NC(=O)c2oc3ccc(S(=O)(=O)N(C)C4CCCCC4)cc3c2C)c1C | inactive: -10.7% | –
CCOC(=O)c1ccccc1NC(=O)c1nn(-c2ccc(C)cc2)c(=O)n(C)c1=O | inactive: -3.84% | –
CCc1ccc(S(=O)(=O)N2CCN(c3ccc(Cl)c(Cl)c3)CC2)cc1 | inactive: 0.231% | –
COc1c(Cl)cc(Cl)cc1/C=C(\C#N)c1nc(-c2ccc(Cl)cc2)cs1 | inactive: -20.8% | –
CCOCCCNC(=O)Cn1cc2c(n1)-c1c(oc(C(=O)N3CCCC3)c1C)CC2 | inactive: 0.316% | –
CCc1ccccc1NC(=O)c1cnn(-c2ccc(F)cc2)c1C1CCNCC1 | inactive: -25.7% | –
COc1ccc(-c2cc(-c3ccc4c(c3)NC(=O)CO4)nc3c2COc2ccc(C)cc2-3)cc1 | inactive: -0.641% | –
COc1ccc(-n2ncc(C(=O)NCCCN3CCCCC3)c2C2CCN(C(=O)OC(C)(C)C)CC2)cc1 | inactive: -6.29% | –
Cc1c(NC(=O)C(F)(F)F)ccc2nc3c(=O)n(C)c(=O)n(C)c3nc12 | inactive: -21.8% | –
Cc1cccc(OCCOCCn2c(-c3ccc(Cl)cc3)nc3ccccc3c2=O)c1C | inactive: -25.2% | –
Cc1ccccc1NC(=O)c1ccc(F)c(S(=O)(=O)N2CCc3ccccc3C2)c1 | inactive: 13.1% | –
COC(=O)Cn1ccc2cc(S(=O)(=O)N3CCCCC3)ccc21 | inactive: -2.55% | –
Cc1cc(C)c(S(=O)(=O)N2CCC(N3CCN(Cc4ccc(F)cc4)C(=O)C3=O)CC2)c(C)c1 | inactive: 0% | –
CC(C)c1ccc(NC(=O)c2cnn3c(C(F)F)cc(-c4ccccc4)nc23)cc1 | inactive: -2.02% | –
Cc1ccc(C(C)C)c(OCCCn2c(=O)oc3ccc(C)cc32)c1 | inactive: -12.2% | –
Cc1ccc(C)c(N2CCN(C(=O)C3CCC(CNS(=O)(=O)c4ccc(Br)s4)CC3)CC2)c1 (stereo not given) | inactive: -1.32% | –
O=C(O)COc1ccccc1C1Nc2ccccc2-c2nnc(SCc3ccc(Cl)cc3)nc2O1 (stereo not given) | inactive: -2.54% | –
COc1cccc(NC(=O)Cn2c(=O)n(CCCCC(=O)NCc3ccc4c(c3)OCO4)c(=O)c3ccccc32)c1 | inactive: -12% | –
CCCS(=O)(=O)N1CC(=O)N(c2cc(C)cc(C)c2)C(C)(C(=O)NC2CCCCCC2)C1 (stereo not given) | inactive: -0.605% | –
N#Cc1ccc(NC(=O)c2ccc3c(c2)nnn3C2CCCC2)cc1 | inactive: 11% | –
CCOC(=O)N1CCC(NC(=O)c2cnn(-c3ccc(C)cc3)c2C2CCN(C(=O)OC(C)(C)C)CC2)CC1 | inactive: -2.28% | –
